Data on ten compounds can be found in PubChem BioAssay AID330 (DTP/NCI, 2004).

Toxic doses and inconclusive results are not listed. For part of its entries the source gives two or more results. This is not the full list of results. The source may hold further records. The values listed for one entry repeat one measurement in other runs, samples, wells, individuals or studies. Brackets tell where a record comes from. A, B and so on number the origins entry by entry.

The assay deals with P388 leukemia ip, CD2F1 mice, survival T/C. As to the kind of experiment: NCI In Vivo Anticancer Drug Screen. Data for tumor model P388 Leukemia (intraperitoneal) in CD2F1 (CDF1) mice. To be noted: endpoint: median survival time, higher = longer survival.
Where [1] appears, read: dose: 25.0 mg/kg/injection, schedule: Q01DX009 (ip), vehicle: saline with Tween-80.

With `C[C@]12CC[C@H]3[C@@H](CCC4=CC(=O)CC[C@@]43C)[C@@H]1CC[C@@H]2OC(=O)Cc1ccc(N(CCCl)CCCl)cc1`, under “dose: 400.0 mg/kg/injection, schedule: Q04DX003 (ip), vehicle: saline with Tween-80”, the T/C was 122 % of control and 166 % of control.

In the case of `CCC12NC(=O)NC1(C)NC(=O)N2` (stereo unspecified), under setting [1], the T/C is 104 % of control and 162 % of control.

With `NC(=S)c1ccccc1[N+](=O)[O-]`, the T/C (dose: 200.0 mg/kg/injection, schedule: Q01DX001 (ip), vehicle: saline) was 99 % of control and 151 % of control.

Consider `CN(N=O)C(=O)NCC1OC(OC2(CO)OC(CNC(=O)N(C)N=O)C(O)C2O)C(O)C(O)C1O` (stereo unspecified), for which, where the note is “dose: 400.0 mg/kg/injection, schedule: Q01DX009 (ip), vehicle: saline”, the T/C is recorded as 104 % of control, 150 % of control, 166 % of control.

Take `CC(/C=C/C1OC(=O)C=CC1C)=C\C(C)C/C=C/C(C)=C/C(CO)C(=O)C(C)C(O)C(C)C/C(C)=C/C(=O)O` (stereo unspecified): the T/C (dose: 200.0 micrograms/kg/injection, schedule: Q01DX005 (ip), vehicle: other) is 86 % of control and 160 % of control.

For the compound `O=C(Nc1ccc(C2=NCCCN2)cc1)Nc1cccc(C(=O)Nc2ccc(C3=NCCCN3)cc2)c1`, the T/C under setting [1] is 90 % of control and 172 % of control.

With `OC(CI)C(O)C(O)C(O)CI` (stereo unspecified), the T/C was 115 % of control [sample A] and 109 % of control, 170 % of control [sample B] (dose: 200.0 mg/kg/injection, schedule: Q01DX009 (ip), vehicle: saline with Tween-80); 120 % of control [sample A] and 160 % of control [sample B] (dose: 400.0 mg/kg/injection, schedule: Q01DX009 (ip), vehicle: saline with Tween-80).

Consider `O=C1NC(=O)C2(CCCc3ccc(N(CCCl)CCCl)cc32)N1` (stereo unspecified), for which the T/C (dose: 50.0 mg/kg/injection, schedule: Q01DX009 (ip), vehicle: saline with Tween-80) is 100 % of control and 181 % of control.

Consider `CCOc1ccc(-c2nc3ccc(-c4nc5ccc(N6CCN(C)CC6)cc5[nH]4)cc3[nH]2)cc1`, for which the T/C (dose: 1.56 mg/kg/injection, schedule: Q01DX005 (ip), vehicle: water) was 124 % of control and 150 % of control.

As for `C1OC1CN1CCN(CC2CO2)CC1` (stereo unspecified), where the note is “dose: 32.0 mg/kg/injection, schedule: Q01DX009 (ip), vehicle: saline”, the T/C was 105 % of control and 179 % of control.
